Results are given in words; binding and its absence hold for the method and conditions named. In cells and extracts the contact can be indirect. Some results given as binding are weak or reduced against the parent protein; the word gives no strength.
T1: KDELR1-mCherry (human) (UniProt P24390)
T1 sequence: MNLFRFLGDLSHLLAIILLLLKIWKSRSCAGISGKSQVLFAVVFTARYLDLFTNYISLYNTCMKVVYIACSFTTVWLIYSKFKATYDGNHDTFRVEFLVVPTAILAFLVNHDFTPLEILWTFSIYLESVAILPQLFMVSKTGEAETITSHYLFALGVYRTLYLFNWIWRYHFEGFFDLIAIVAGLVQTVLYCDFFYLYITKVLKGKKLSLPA

Protein sequences, listed by entry. Tags and fused reporters are not part of them.
UniProt Q8N6T3: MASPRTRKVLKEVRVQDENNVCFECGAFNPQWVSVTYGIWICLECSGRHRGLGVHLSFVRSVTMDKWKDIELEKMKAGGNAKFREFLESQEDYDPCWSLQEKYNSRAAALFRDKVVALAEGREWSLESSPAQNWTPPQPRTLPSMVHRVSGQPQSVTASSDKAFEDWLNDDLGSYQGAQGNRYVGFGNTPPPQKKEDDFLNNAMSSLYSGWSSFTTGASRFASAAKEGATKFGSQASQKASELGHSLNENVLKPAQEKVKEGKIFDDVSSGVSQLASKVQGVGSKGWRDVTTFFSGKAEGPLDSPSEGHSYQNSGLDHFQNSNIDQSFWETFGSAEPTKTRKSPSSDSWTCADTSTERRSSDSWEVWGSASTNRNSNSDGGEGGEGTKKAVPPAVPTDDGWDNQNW
UniProt Q9NP61: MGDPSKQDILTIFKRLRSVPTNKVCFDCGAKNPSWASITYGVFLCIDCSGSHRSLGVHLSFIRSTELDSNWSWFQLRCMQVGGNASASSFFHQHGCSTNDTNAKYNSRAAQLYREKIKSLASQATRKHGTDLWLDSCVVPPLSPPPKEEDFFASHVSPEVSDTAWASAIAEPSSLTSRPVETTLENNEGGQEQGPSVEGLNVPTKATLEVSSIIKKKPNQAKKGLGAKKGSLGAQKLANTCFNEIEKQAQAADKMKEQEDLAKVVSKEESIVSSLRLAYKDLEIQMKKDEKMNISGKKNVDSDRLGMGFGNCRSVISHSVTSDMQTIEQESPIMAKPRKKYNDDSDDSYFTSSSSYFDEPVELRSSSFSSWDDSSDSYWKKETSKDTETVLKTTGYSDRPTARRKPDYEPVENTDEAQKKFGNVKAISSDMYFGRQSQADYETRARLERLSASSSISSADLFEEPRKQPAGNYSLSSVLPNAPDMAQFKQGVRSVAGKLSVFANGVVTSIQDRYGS
UniProt Q9H3P7: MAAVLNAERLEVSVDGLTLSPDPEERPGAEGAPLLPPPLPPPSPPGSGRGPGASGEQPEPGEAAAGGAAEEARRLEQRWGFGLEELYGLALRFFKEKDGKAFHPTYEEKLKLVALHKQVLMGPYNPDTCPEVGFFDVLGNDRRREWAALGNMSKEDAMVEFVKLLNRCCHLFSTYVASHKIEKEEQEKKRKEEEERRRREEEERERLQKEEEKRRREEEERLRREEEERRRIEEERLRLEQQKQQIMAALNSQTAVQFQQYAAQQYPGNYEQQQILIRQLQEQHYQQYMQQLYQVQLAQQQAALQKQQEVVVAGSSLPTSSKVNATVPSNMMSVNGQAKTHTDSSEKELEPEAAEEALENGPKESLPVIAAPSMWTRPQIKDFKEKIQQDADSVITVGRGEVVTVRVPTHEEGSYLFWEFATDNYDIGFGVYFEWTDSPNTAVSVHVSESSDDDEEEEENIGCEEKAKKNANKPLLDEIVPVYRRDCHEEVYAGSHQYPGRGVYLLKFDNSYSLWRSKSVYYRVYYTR

B1: Golgin160 (endogenous) (protein, UniProt Q08378 1-1498)
chain: MDGASAEQDGLQEDRSHSGPSSLPEAPLKPPGPLVPPDQQDKVQCAEVNRASTEGESPDGPGQGGLCQNGPTPPFPDPPSSLDPTTSPVGPDASPGVAGFHDNLRKSQGTSAEGSVRKEALQSLRLSLPMQETQLCSTDSPLPLEKEEQVRLQARKWLEEQLKQYRVKRQQERSSQPATKTRLFSTLDPELMLNPENLPRASTLAMTKEYSFLRTSVPRGPKVGSLGLPAHPREKKTSKSSKIRSLADYRTEDSNAGNSGGNVPAPDSTKGSLKQNRSSAASVVSEISLSPDTDDRLENTSLAGDSVSEVDGNDSDSSSYSSASTRGTYGILSKTVGTQDTPYMVNGQEIPADTLGQFPSIKDVLQAAAAEHQDQGQEVNGEVRSRRDSICSSVSLESSAAETQEEMLQVLKEKMRLEGQLEALSLEASQALKEKAELQAQLAALSTKLQAQVECSHSSQQRQDSLSSEVDTLKQSCWDLERAMTDLQNMLEAKNASLASSNNDLQVAEEQYQRLMAKVEDMQRSMLSKDNTVHDLRQQMTALQSQLQQVQLERTTLTSKLKASQAEISSLQSVRQWYQQQLALAQEARVRLQGEMAHIQVGQMTQAGLLEHLKLENVSLSQQLTETQHRSMKEKGRIAAQLQGIEADMLDQEAAFMQIQEAKTMVEEDLQRRLEEFEGERERLQRMADSAASLEQQLEQVKLTLLQRDQQLEALQQEHLDLMKQLTLTQEALQSREQSLDALQTHYDELQARLGELQGEAASREDTICLLQNEKIILEAALQAAKSGKEELDRGARRLEEGTEETSETLEKLREELAIKSGQVEHLQQETAALKKQMQKIKEQFLQQKVMVEAYRRDATSKDQLISELKATRKRLDSELKELRQELMQVHGEKRTAEAELSRLHREVAQVRQHMADLEGHLQSAQKERDEMETHLQSLQFDKEQMVAVTEANEALKKQIEELQQEARKAITEQKQKMRRLGSDLTSAQKEMKTKHKAYENAVGILSRRLQEALAAKEAADAELGQLRAQGGSSDSSLALHERIQALEAELQAVSHSKTLLEKELQEVIALTSQELEESREKVLELEDELQESRGFRKKIKRLEESNKKLALELEHEKGKLTGLGQSNAALREHNSILETALAKREADLVQLNLQVQAVLQRKEEEDRQMKHLVQALQASLEKEKEKVNSLKEQVAAAKVEAGHNRRHFKAASLELSEVKKELQAKEHLVQKLQAEADDLQIREGKHSQEIAQFQAELAEARAQLQLLQKQLDEQLSKQPVGNQEMENLKWEVDQKEREIQSLKQQLDLTEQQGRKELEGLQQLLQNVKSELEMAQEDLSMTQKDKFMLQAKVSELKNNMKTLLQQNQQLKLDLRRGAAKTRKEPKGEASSSNPATPIKIPDCPVPASLLEELLRPPPAVSKEPLKNLNSCLQQLKQEMDSLQRQMEEHALTVHESLSSWTPLEPATASPVPPGGHAGPRGDPQRHSQSRASKEGPGE
B2: KDELR1-mCherry (receptor, UniProt P24390 1-212)
chain: MNLFRFLGDLSHLLAIILLLLKIWKSRSCAGISGKSQVLFAVVFTARYLDLFTNYISLYNTCMKVVYIACSFTTVWLIYSKFKATYDGNHDTFRVEFLVVPTAILAFLVNHDFTPLEILWTFSIYLESVAILPQLFMVSKTGEAETITSHYLFALGVYRTLYLFNWIWRYHFEGFFDLIAIVAGLVQTVLYCDFFYLYITKVLKGKKLSLPA

Legend:
KDELR1-mCherry (human) = target: T1, KDELR1-mCherry (human); experiment: co-IP; anti-RFP agarose beads, 4 h at 4°C, on lysates (20 mM HEPES pH 7.4, 100 mM NaCl, 2 mM DDM + 0.02% CHS) of HeLa cells with KDELR1-mCherry or endogenously tagged KDELR1-3xFlag-mCherry; western blot; also done with ACBD3-depleted, ACBD3-KO and ACBD3 over-expressing cells
ArfGAP1-myc (human) = ArfGAP1-myc (human) (UniProt Q8N6T3); experiment: co-IP; myc-trap agarose beads on lysates of HeLa co-transfected with KDELR1-mCherry and myc-ACBD3, ARFGAP1-myc or ARFGAP3-myc; western blot
ArfGAP3-myc (human) = ArfGAP3-myc (human) (UniProt Q9NP61); experiment: as above
myc-ACBD3 (human) = myc-ACBD3 (human) (UniProt Q9H3P7); experiment: as above

Row | Binder | binding (KDELR1-mCherry (human)) | binding (ArfGAP1-myc (human)) | binding (ArfGAP3-myc (human)) | binding (myc-ACBD3 (human))
1 | B1 | binds | – | – | –
2 | B2 | – | binds | binds | binds

From publication PMC8424950
